This passage reports binding signal (RPM ratio (pull-down/input)) results from publication PMC12820563.

This is one part of the list. The list includes weakly bound sequences.

The target of the experiment is T1, MBP-FoxP3dN (UniProt Q99JB6).
T1 sequence: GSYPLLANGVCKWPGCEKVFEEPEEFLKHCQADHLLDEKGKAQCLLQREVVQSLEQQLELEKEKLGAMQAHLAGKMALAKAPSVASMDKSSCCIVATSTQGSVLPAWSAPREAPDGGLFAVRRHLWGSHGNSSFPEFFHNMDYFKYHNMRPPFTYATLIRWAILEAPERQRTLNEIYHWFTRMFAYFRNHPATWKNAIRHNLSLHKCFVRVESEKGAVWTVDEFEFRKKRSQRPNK
As to the kind of experiment: PD-seq (MBP pull-down with sequencing). As to conditions: 20 mM Tris-HCl pH 7.5, 100 mM NaCl, 1.5 mM MgCl2, 0.4 uM protein, 0.1 uM dsDNA library, 30 min, room temperature, amylose pull-down; high values mean tight binding; double strand, one strand shown.
Take “GATGATTGTTCTCCCAGCTGATGAATTGCACAACTCGAGTAAACAAATTTTCCTAATCTTTCTGTTCAAGCGCCATCTAC”: the binding signal (RPM ratio (pull-down/input)) is 1.01.
Then “GATGATTGTTCTCCCAGCTGATGAATTGGTTTCATCGAGTAAACAAATTTTCCTAATCTTTCTGTTCAAGCGCCATCTAC”, with 0.928; and “GATGATTGTTCTCCCAGCTGATGAATTAACAGTATCGAGTAAACAAATTTTCCTAATCTTTCTGTTCAAGCGCCATCTAC”, with 0.546.
As for “GATGATTGTTCTCCCAGCTGATGAATTTTCCTTCTCGAGTAAACAAATTTTCCTAATCTTTCTGTTCAAGCGCCATCTAC”, the binding signal (RPM ratio (pull-down/input)) was determined as 0.258.
Then “GATGATTGTTCTCCCAGCTGATGAATTGGCGCGATCGAGTAAACAAATTTTCCTAATCTTTCTGTTCAAGCGCCATCTAC”, with 0.633.
Then “GATGATTGTTCTCCCAGCTGATGAATTCCCGTCTTCGAGTAAACAAATTTTCCTAATCTTTCTGTTCAAGCGCCATCTAC”, with 0.33; and “GATGATTGTTCTCCCAGCTGATGAATTGTATAGTTCGAGTAAACAAATTTTCCTAATCTTTCTGTTCAAGCGCCATCTAC”, with 1.58; and “GATGATTGTTCTCCCAGCTGATGAATTGAAGCAGTCGAGTAAACAAATTTTCCTAATCTTTCTGTTCAAGCGCCATCTAC”, with 0.453.
For “GATGATTGTTCTCCCAGCTGATGAATTCTCTTCATCGAGTAAACAAATTTTCCTAATCTTTCTGTTCAAGCGCCATCTAC”, the binding signal (RPM ratio (pull-down/input)) is 0.276.
Then “GATGATTGTTCTCCCAGCTGATGAATTAAATGCATCGAGTAAACAAATTTTCCTAATCTTTCTGTTCAAGCGCCATCTAC”, with 2.36; and “GATGATTGTTCTCCCAGCTGATGAATTCCGTAGCTCGAGTAAACAAATTTTCCTAATCTTTCTGTTCAAGCGCCATCTAC”, with 0.684.
The result for “GATGATTGTTCTCCCAGCTGATGAATTTGTCGTATCGAGTAAACAAATTTTCCTAATCTTTCTGTTCAAGCGCCATCTAC” reads 5.28.
As for “GATGATTGTTCTCCCAGCTGATGAATTGGGAGGTTCGAGTAAACAAATTTTCCTAATCTTTCTGTTCAAGCGCCATCTAC”, the binding signal (RPM ratio (pull-down/input)) is 0.359.
For “GATGATTGTTCTCCCAGCTGATGAATTGCTAAGCTCGAGTAAACAAATTTTCCTAATCTTTCTGTTCAAGCGCCATCTAC”, the binding signal (RPM ratio (pull-down/input)) stood at 0.454.
The result for “GATGATTGTTCTCCCAGCTGATGAATTACCTCGTTCGAGTAAACAAATTTTCCTAATCTTTCTGTTCAAGCGCCATCTAC” reads 0.371.
Then “GATGATTGTTCTCCCAGCTGATGAATTTGGAGTGTCGAGTAAACAAATTTTCCTAATCTTTCTGTTCAAGCGCCATCTAC”, with 1.16; and “GATGATTGTTCTCCCAGCTGATGAATTATCATTCTCGAGTAAACAAATTTTCCTAATCTTTCTGTTCAAGCGCCATCTAC”, with 0.578.
The result for “GATGATTGTTCTCCCAGCTGATGAATTATTCGCTTCGAGTAAACAAATTTTCCTAATCTTTCTGTTCAAGCGCCATCTAC” reads 0.326; that for “GATGATTGTTCTCCCAGCTGATGAATTACCTTTATCGAGTAAACAAATTTTCCTAATCTTTCTGTTCAAGCGCCATCTAC”, 0.469; that for “GATGATTGTTCTCCCAGCTGATGAATTCCGTGCTTCGAGTAAACAAATTTTCCTAATCTTTCTGTTCAAGCGCCATCTAC”, 0.536.
Consider “GATGATTGTTCTCCCAGCTGATGAATTTCGAAGTTCGAGTAAACAAATTTTCCTAATCTTTCTGTTCAAGCGCCATCTAC”, for which the binding signal (RPM ratio (pull-down/input)) is 0.305.
For the sequence “GATGATTGTTCTCCCAGCTGATGAATTCGGGCGGTCGAGTAAACAAATTTTCCTAATCTTTCTGTTCAAGCGCCATCTAC”, the binding signal (RPM ratio (pull-down/input)) is 0.262.
Then “GATGATTGTTCTCCCAGCTGATGAATTCTCCCAGTCGAGTAAACAAATTTTCCTAATCTTTCTGTTCAAGCGCCATCTAC”, with 0.211.
Then “GATGATTGTTCTCCCAGCTGATGAATTCGCGAGCTCGAGTAAACAAATTTTCCTAATCTTTCTGTTCAAGCGCCATCTAC”, with 0.315.
The result for “GATGATTGTTCTCCCAGCTGATGAATTCGAATTCTCGAGTAAACAAATTTTCCTAATCTTTCTGTTCAAGCGCCATCTAC” reads 0.557.
For the sequence “GATGATTGTTCTCCCAGCTGATGAATTGGTCTGATCGAGTAAACAAATTTTCCTAATCTTTCTGTTCAAGCGCCATCTAC”, the binding signal (RPM ratio (pull-down/input)) turned out to be 0.271.
Then “GATGATTGTTCTCCCAGCTGATGAATTCAGTGAATCGAGTAAACAAATTTTCCTAATCTTTCTGTTCAAGCGCCATCTAC”, with 0.29.
Then “GATGATTGTTCTCCCAGCTGATGAATTAGGACCTTCGAGTAAACAAATTTTCCTAATCTTTCTGTTCAAGCGCCATCTAC”, with 0.324; and “GATGATTGTTCTCCCAGCTGATGAATTTTGCCTTTCGAGTAAACAAATTTTCCTAATCTTTCTGTTCAAGCGCCATCTAC”, with 5.56; and “GATGATTGTTCTCCCAGCTGATGAATTCCACCAGTCGAGTAAACAAATTTTCCTAATCTTTCTGTTCAAGCGCCATCTAC”, with 0.199.
As to “GATGATTGTTCTCCCAGCTGATGAATTGGTCACATCGAGTAAACAAATTTTCCTAATCTTTCTGTTCAAGCGCCATCTAC”, the binding signal (RPM ratio (pull-down/input)) stood at 0.592.
Then “GATGATTGTTCTCCCAGCTGATGAATTGCTCGTCTCGAGTAAACAAATTTTCCTAATCTTTCTGTTCAAGCGCCATCTAC”, with 0.593; and “GATGATTGTTCTCCCAGCTGATGAATTACGTAGGTCGAGTAAACAAATTTTCCTAATCTTTCTGTTCAAGCGCCATCTAC”, with 0.438.
The result for “GATGATTGTTCTCCCAGCTGATGAATTTCTTGCCTCGAGTAAACAAATTTTCCTAATCTTTCTGTTCAAGCGCCATCTAC” reads 0.494.
Turning to “GATGATTGTTCTCCCAGCTGATGAATTCGTCTAATCGAGTAAACAAATTTTCCTAATCTTTCTGTTCAAGCGCCATCTAC”, the binding signal (RPM ratio (pull-down/input)) was determined as 0.424.
Then “GATGATTGTTCTCCCAGCTGATGAATTATCACAGTCGAGTAAACAAATTTTCCTAATCTTTCTGTTCAAGCGCCATCTAC”, with 0.277; and “GATGATTGTTCTCCCAGCTGATGAATTTATTGATTCGAGTAAACAAATTTTCCTAATCTTTCTGTTCAAGCGCCATCTAC”, with 5.78.
Then “GATGATTGTTCTCCCAGCTGATGAATTCCCTCTTTCGAGTAAACAAATTTTCCTAATCTTTCTGTTCAAGCGCCATCTAC”, with 0.253; and “GATGATTGTTCTCCCAGCTGATGAATTTACACCTTCGAGTAAACAAATTTTCCTAATCTTTCTGTTCAAGCGCCATCTAC”, with 0.678; and “GATGATTGTTCTCCCAGCTGATGAATTTGGGAGATCGAGTAAACAAATTTTCCTAATCTTTCTGTTCAAGCGCCATCTAC”, with 0.242.
Then “GATGATTGTTCTCCCAGCTGATGAATTACCGACTTCGAGTAAACAAATTTTCCTAATCTTTCTGTTCAAGCGCCATCTAC”, with 0.528; and “GATGATTGTTCTCCCAGCTGATGAATTGTTTGAGTCGAGTAAACAAATTTTCCTAATCTTTCTGTTCAAGCGCCATCTAC”, with 1.16; and “GATGATTGTTCTCCCAGCTGATGAATTGCGTTGCTCGAGTAAACAAATTTTCCTAATCTTTCTGTTCAAGCGCCATCTAC”, with 1.52.
As for “GATGATTGTTCTCCCAGCTGATGAATTCGACTACTCGAGTAAACAAATTTTCCTAATCTTTCTGTTCAAGCGCCATCTAC”, the binding signal (RPM ratio (pull-down/input)) is 0.49.
Then “GATGATTGTTCTCCCAGCTGATGAATTTGCAAAATCGAGTAAACAAATTTTCCTAATCTTTCTGTTCAAGCGCCATCTAC”, with 0.356.
The result for “GATGATTGTTCTCCCAGCTGATGAATTGTACATGTCGAGTAAACAAATTTTCCTAATCTTTCTGTTCAAGCGCCATCTAC” reads 0.648; that for “GATGATTGTTCTCCCAGCTGATGAATTATTTCAATCGAGTAAACAAATTTTCCTAATCTTTCTGTTCAAGCGCCATCTAC”, 0.326.
Then “GATGATTGTTCTCCCAGCTGATGAATTCCCCGAGTCGAGTAAACAAATTTTCCTAATCTTTCTGTTCAAGCGCCATCTAC”, with 0.156; and “GATGATTGTTCTCCCAGCTGATGAATTCGCCTGGTCGAGTAAACAAATTTTCCTAATCTTTCTGTTCAAGCGCCATCTAC”, with 0.542.
For “GATGATTGTTCTCCCAGCTGATGAATTTCACATTTCGAGTAAACAAATTTTCCTAATCTTTCTGTTCAAGCGCCATCTAC”, the binding signal (RPM ratio (pull-down/input)) stood at 0.428.
Then “GATGATTGTTCTCCCAGCTGATGAATTACCGGGCTCGAGTAAACAAATTTTCCTAATCTTTCTGTTCAAGCGCCATCTAC”, with 0.256; and “GATGATTGTTCTCCCAGCTGATGAATTCTACATGTCGAGTAAACAAATTTTCCTAATCTTTCTGTTCAAGCGCCATCTAC”, with 0.448; and “GATGATTGTTCTCCCAGCTGATGAATTTGGCCCTTCGAGTAAACAAATTTTCCTAATCTTTCTGTTCAAGCGCCATCTAC”, with 1.
As to “GATGATTGTTCTCCCAGCTGATGAATTGGCTGTGTCGAGTAAACAAATTTTCCTAATCTTTCTGTTCAAGCGCCATCTAC”, the binding signal (RPM ratio (pull-down/input)) is 1.25.
The result for “GATGATTGTTCTCCCAGCTGATGAATTGTCACTCTCGAGTAAACAAATTTTCCTAATCTTTCTGTTCAAGCGCCATCTAC” reads 0.72.
On to “GATGATTGTTCTCCCAGCTGATGAATTACGTACTTCGAGTAAACAAATTTTCCTAATCTTTCTGTTCAAGCGCCATCTAC”, for which the binding signal (RPM ratio (pull-down/input)) is 0.522.
In the case of “GATGATTGTTCTCCCAGCTGATGAATTACTGTGATCGAGTAAACAAATTTTCCTAATCTTTCTGTTCAAGCGCCATCTAC”, the binding signal (RPM ratio (pull-down/input)) came out at 0.49.
The result for “GATGATTGTTCTCCCAGCTGATGAATTTCATTGCTCGAGTAAACAAATTTTCCTAATCTTTCTGTTCAAGCGCCATCTAC” reads 0.894; that for “GATGATTGTTCTCCCAGCTGATGAATTAGCACACTCGAGTAAACAAATTTTCCTAATCTTTCTGTTCAAGCGCCATCTAC”, 0.449.
Then “GATGATTGTTCTCCCAGCTGATGAATTTCTCAGATCGAGTAAACAAATTTTCCTAATCTTTCTGTTCAAGCGCCATCTAC”, with 0.166.
The result for “GATGATTGTTCTCCCAGCTGATGAATTGGTCAAATCGAGTAAACAAATTTTCCTAATCTTTCTGTTCAAGCGCCATCTAC” reads 0.267.
“GATGATTGTTCTCCCAGCTGATGAATTGGCAGTGTCGAGTAAACAAATTTTCCTAATCTTTCTGTTCAAGCGCCATCTAC”: the binding signal (RPM ratio (pull-down/input)) was determined as 0.535.
Then “GATGATTGTTCTCCCAGCTGATGAATTCTCGAAGTCGAGTAAACAAATTTTCCTAATCTTTCTGTTCAAGCGCCATCTAC”, with 0.188.
